According to PubChem BioAssay AID1768 (National Center for Advancing Translational Sciences (NCATS), 2009):
About 620 (0.23%) of roughly 270,000 compounds were called active. The shares of active, inactive and inconclusive entries below differ from those in the screen. Calls come from the whole dose curve; as a rule, active = well fitted inhibition curve with a large enough effect in the polarisation, with a control signal flat (not every such curve was filed as active); inconclusive = small, poorly fitted or top-dose-only effect, or effect the other way, or a change in a side signal; inactive = no such curve, though single readings can be large or run the other way; the % refers to the polarisation. Potencies beside an inconclusive call are fits to weak or partial responses and may not hold up. “Side channel” marks fits to a control or component signal instead of the main read-out.

biological target: Menin (Homo sapiens) (UniProt O00255); assay: qHTS Assay for Inhibitors Targeting the Menin-MLL Interaction in MLL Related Leukemias: Competition With Texas Red Labeled MLL-derived Mutant Peptide; details: fluorescence polarization; FP activity change, negative = inhibition: at 61.6 µM (top of the series); for FP activity change, negative = inhibition: % of control where 0% means no effect
UniProt O00255, sequence (O00255 whole entry, looked up): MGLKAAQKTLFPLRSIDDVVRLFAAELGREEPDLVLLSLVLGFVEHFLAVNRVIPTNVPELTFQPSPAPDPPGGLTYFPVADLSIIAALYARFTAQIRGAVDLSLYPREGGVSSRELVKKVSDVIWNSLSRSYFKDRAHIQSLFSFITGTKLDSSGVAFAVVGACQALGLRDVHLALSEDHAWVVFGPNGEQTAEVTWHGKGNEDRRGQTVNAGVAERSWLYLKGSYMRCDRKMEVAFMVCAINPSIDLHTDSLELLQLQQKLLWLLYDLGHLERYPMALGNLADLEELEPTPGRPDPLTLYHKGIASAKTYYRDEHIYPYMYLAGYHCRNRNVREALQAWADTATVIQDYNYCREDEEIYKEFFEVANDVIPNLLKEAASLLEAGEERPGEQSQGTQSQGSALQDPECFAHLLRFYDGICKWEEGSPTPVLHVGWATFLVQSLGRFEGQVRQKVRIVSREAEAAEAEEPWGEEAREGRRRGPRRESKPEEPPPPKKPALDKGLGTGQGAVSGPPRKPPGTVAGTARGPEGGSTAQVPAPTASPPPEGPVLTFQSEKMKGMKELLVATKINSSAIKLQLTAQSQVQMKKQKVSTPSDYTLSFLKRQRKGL
Potency is the fitted concentration of half-maximal effect; tags give direction and shape of the fitted curve or compound fluorescence and quenching.

Potency, inactive:
CCCCCOc1ccc(NC(=O)CSc2cccc3cccnc23)cc1
COc1cc(/C=C2\CC/C(=C\c3cc(OC)c(OC)c(OC)c3)C2=O)cc(OC)c1OC
COc1ccccc1N1CCN(c2nc3ccccc3nc2C(C#N)C(=O)OC(C)C)CC1 (configuration not stated)
CCC(C)c1ccc(S(=O)(=O)N2CCN(C(=O)COc3ccc4c(C)cc(=O)oc4c3)CC2)cc1 (configuration not stated)
COC(=O)C1=C(C)NC2=C(C(=O)CC(C)(C)C2)C1c1ccccn1 (configuration not stated)

Potency, inconclusive:
Cc1ccccc1-c1cc(C(=O)Nc2sc(C(=O)OC(C)C)c(C)c2C#N)c2ccccc2n1 20 µM [quencher, side channel, single point]
COC(=O)CCC(=O)Nc1ccc(N=Nc2ccccc2)cc1 17.8 µM [quencher, side channel, partial curve]
O=c1cc(-c2ccccc2)[nH]n1-c1nc2ccccc2s1 12.6 µM [quencher, side channel, partial curve]
Cc1cc(-c2c(C)[nH]n(-c3ccc(Cl)cc3)c2=O)n(-c2ccc(Cl)cc2)n1 39.8 µM [quencher, side channel, single point]
C/C(=N\Nc1ccc(Cl)cc1)c1ccncc1 14.1 µM [quencher, side channel, partial curve]
Cc1cccc(N=c2oc3cc(O)ccc3cc2C(N)=O)c1 39.8 µM [quencher, side channel, single point]
CC(C)(C)c1cc(NCCCn2ccnc2)n2ncc(-c3ccc(Cl)cc3)c2n1 8.91 µM [quencher, side channel, full curve]
COC(=O)c1c(-c2ccc(C)cc2)csc1NC(=S)NC(=O)c1cc(OC)cc(OC)c1 14.1 µM [inhibitor, partial curve]
CC(CCc1ccccc1)NC(=O)c1ccc(C(=O)NC(C)CCc2ccccc2)cc1 (configuration not stated) 28.2 µM [fluorescent, side channel, single point]
O=C(Nc1ccc(F)cc1F)c1cc(-c2ccc3c(c2)OCO3)on1 35.5 µM [fluorescent, side channel, partial curve]
COc1ccc(NC(=O)CCC(=O)c2ccc(C(C)C)cc2)cc1 39.8 µM [inhibitor, single point]
Cc1ccsc1/C=C1/C(=O)NN(c2ccccc2)C1=O 25.1 µM [quencher, side channel, partial curve]
O=C(Nc1cc(Sc2ccccn2)cc([N+](=O)[O-])c1)c1cccc(Cl)c1 3.16 µM [quencher, side channel, single point]
COc1ccccc1N1CCN(/N=C/c2ccc([N+](=O)[O-])cc2)CC1 17.8 µM [quencher, side channel, single point]
Cc1ccccc1OCCn1nc(C(=O)O)c2ccccc2c1=O 39.8 µM [fluorescent, side channel, single point]
CC(C)Cn1c(SCc2nnc(-c3cccs3)o2)nc(O)cc1=O 25.1 µM [inhibitor, single point]
Cc1nn(-c2ccccc2)c(Cl)c1/C=N/Nc1ccc(S(=O)(=O)Nc2ccccc2C(=O)O)cc1[N+](=O)[O-] 10 µM [quencher, side channel, partial curve]
O=C(CCS(=O)(=O)c1ccccc1)Nc1ccc(-c2nc3ccccc3s2)cc1 12.6 µM [inhibitor, partial curve]
CC(=O)c1ccc(OCCCC(=O)NCCc2ccc(C(F)(F)F)cc2)cc1 0.631 µM [inhibitor, full curve, poor fit]
O=C(NCC12CC3CC(CC(C3)C1)C2)c1nc2ncccn2n1 5.62 µM [fluorescent, side channel, single point]
NNC(=O)c1nc[nH]c1C(=O)Nc1ccccc1[N+](=O)[O-] 39.8 µM [quencher, side channel, single point]
CCOP(=O)(NC12CC3CC(CC(C3)C1)C2)NC12CC3CC(CC(C3)C1)C2 7.94 µM [inhibitor, partial curve]
COc1ccc(C(CNCC(=O)Nc2ccccc2F)N(C)C)cc1 (configuration not stated) 7.94 µM [inhibitor, full curve, poor fit]
Cc1ccc(Nc2nc3nonc3[nH]c2=O)cc1C 39.8 µM [quencher, side channel, single point]
CC(C)C(c1nnnn1CCc1ccccc1)N1CCC(C(N)=O)CC1 (configuration not stated) 25.1 µM [fluorescent, side channel, partial curve]
Cc1ccc(C2(c3noc(CN4C[C@@H](C)O[C@@H](C)C4)n3)CCCC2)cc1 10 µM [fluorescent, side channel, partial curve]
CC(=O)Nc1ccc(-c2ccnc(-c3ccc(NC(C)=O)cc3)n2)cc1 28.2 µM [inhibitor, partial curve]
c1ccc2c(c1)CCN2CCN1CCc2ccccc21 7.08 µM [quencher, side channel, full curve, poor fit]
CCN1C(=O)c2ccccc2S(=O)c2ccc(C(=O)NCCN(CC(C)C)CC(C)C)cc21 (configuration not stated) 20 µM [inhibitor, partial curve, poor fit]
CC1=C([N+](=O)[O-])C(c2cccc(Br)c2)C2=C(N1)c1ccccc1C2=O (configuration not stated) 20 µM [quencher, side channel, partial curve]
Cc1ccc(-c2cc(C(=O)Nc3ccc(S(=O)(=O)Nc4nccs4)cc3)c3ccccc3n2)c(C)c1 6.31 µM [quencher, side channel, partial curve]

FP activity change, negative = inhibition, inactive:
COC(=O)NC(c1ccccc1)C(C(=O)OC)C(=O)OC (configuration not stated) 14.9% [at 11.7 µM]
